No constants are given. Whether binding was seen depends on the method and setting. For some assays here: In cells and extracts the contact can be indirect. Some entries that bind do so weakly or less than the wild type. For some assays here: Tags and fused reporters may be left off the sequences shown.

Protein sequences, listed by entry. Tags and fused reporters are not part of them. Lines headed by an entry give the natural chain unless they say otherwise; changes in a name come on top. Residues count along the entry.
UniProt Q9WUI0: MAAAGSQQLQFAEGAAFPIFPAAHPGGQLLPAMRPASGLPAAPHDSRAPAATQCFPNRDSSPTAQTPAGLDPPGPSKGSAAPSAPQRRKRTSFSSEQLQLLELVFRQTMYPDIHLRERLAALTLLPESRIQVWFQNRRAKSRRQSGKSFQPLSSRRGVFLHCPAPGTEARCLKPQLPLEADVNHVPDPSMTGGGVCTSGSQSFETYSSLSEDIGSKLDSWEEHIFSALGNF
GST-Mixl1 amino terminal Proline rich domain (aa 1–86): residues 1-86 of Q9WUI0
GST-Mixl1 aa 86–231: residues 86-231 of Q9WUI0
GST-Mixl1 aa 145–231: residues 145-231 of Q9WUI0

One assay addresses FLAG mMixl1 (mouse) (UniProt Q9WUI0). The assay is described as follows: co-IP; 293T cells co-transfected with FLAG and HA expression plasmids; whole cell lysates in ELB150 buffer; IP with 5 µg anti-FLAG M2 or isotype control antibody, 4°C, protein G beads; Western blot with anti-HA (or anti-T N19). A general note: Immunoblotting shows a protein as a band on a membrane.
In assay [1] the target is GST mMixl1 (mammalian) (mouse) (UniProt Q9WUI0). The assay is described as follows: pull-down; 293T cells co-transfected with pDEST27 (GST) and pMT2-SM HA plasmids; whole cell lysates in ELB150 buffer on glutathione agarose, 4°C; Western blot with anti-HA.
Assay [2] has as its target GST-Mixl1 aa 86–231 (mouse) (UniProt Q9WUI0). Described as above.
The target in assay [3] is GST-Mixl1 aa 145–231 (mouse) (UniProt Q9WUI0). The assay is described as above.
Assay [4] addresses GST-Mixl1 amino terminal Proline rich domain (aa 1–86) (mouse) (UniProt Q9WUI0). The assay is described as above.
Assay [5] deals with endogenous Mixl1 (mouse (endogenous in day 4 embryoid bodies from mouse ESCs)) (UniProt Q9WUI0). The assay is described as follows: co-IP; nuclear proteins of day 4 differentiated Mixl1 GFP/w ESCs; IP with anti-Mixl1 6G2 or rat isotype control antibody; Western blot with anti-Mixl1 2D10 or anti-Brachyury N19.
The next assay addresses T1, GST mT (mouse) (UniProt P20293).
T1 sequence: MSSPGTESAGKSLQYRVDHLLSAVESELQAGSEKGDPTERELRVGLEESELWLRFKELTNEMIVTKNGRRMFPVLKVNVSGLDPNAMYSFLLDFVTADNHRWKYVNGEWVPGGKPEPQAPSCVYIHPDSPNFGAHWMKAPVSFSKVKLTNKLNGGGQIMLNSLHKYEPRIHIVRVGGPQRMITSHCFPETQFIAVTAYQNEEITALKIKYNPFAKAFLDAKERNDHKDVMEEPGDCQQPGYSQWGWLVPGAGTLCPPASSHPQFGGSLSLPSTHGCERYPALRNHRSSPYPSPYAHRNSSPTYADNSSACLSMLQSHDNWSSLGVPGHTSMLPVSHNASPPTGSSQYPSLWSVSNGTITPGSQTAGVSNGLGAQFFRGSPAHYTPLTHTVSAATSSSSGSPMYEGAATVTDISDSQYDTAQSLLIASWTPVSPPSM
As to the kind of experiment: pull-down; 293T cells co-transfected with pDEST27 (GST) and pMT2-SM HA plasmids; whole cell lysates in ELB150 buffer on glutathione agarose, 4°C; Western blot with anti-HA.

A further assay deals with T2, GST-xMix.1 (Xenopus) (UniProt P21711).
T2 sequence: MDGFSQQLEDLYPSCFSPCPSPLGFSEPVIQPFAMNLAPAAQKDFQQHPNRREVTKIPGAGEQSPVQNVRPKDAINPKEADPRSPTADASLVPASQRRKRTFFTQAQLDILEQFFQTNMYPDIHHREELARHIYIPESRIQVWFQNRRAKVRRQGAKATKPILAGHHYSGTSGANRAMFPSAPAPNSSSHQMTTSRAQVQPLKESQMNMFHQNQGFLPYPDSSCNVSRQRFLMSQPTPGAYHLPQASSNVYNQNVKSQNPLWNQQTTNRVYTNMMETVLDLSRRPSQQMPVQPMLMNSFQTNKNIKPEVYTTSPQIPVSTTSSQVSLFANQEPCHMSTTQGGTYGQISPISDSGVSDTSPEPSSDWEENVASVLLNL
The assay is described as follows: pull-down; bacterially made, purified His-Brachyury derivatives incubated with GST-Mixl1 derivatives or GST alone on glutathione beads in ELB150 buffer, 4°C, 3 h; washed in ELB300 (0.3 M KCl); Western blot with anti-T N19; both purified.

B1: HA mT (protein, UniProt P20293 1-436)
chain: MSSPGTESAGKSLQYRVDHLLSAVESELQAGSEKGDPTERELRVGLEESELWLRFKELTNEMIVTKNGRRMFPVLKVNVSGLDPNAMYSFLLDFVTADNHRWKYVNGEWVPGGKPEPQAPSCVYIHPDSPNFGAHWMKAPVSFSKVKLTNKLNGGGQIMLNSLHKYEPRIHIVRVGGPQRMITSHCFPETQFIAVTAYQNEEITALKIKYNPFAKAFLDAKERNDHKDVMEEPGDCQQPGYSQWGWLVPGAGTLCPPASSHPQFGGSLSLPSTHGCERYPALRNHRSSPYPSPYAHRNSSPTYADNSSACLSMLQSHDNWSSLGVPGHTSMLPVSHNASPPTGSSQYPSLWSVSNGTITPGSQTAGVSNGLGAQFFRGSPAHYTPLTHTVSAATSSSSGSPMYEGAATVTDISDSQYDTAQSLLIASWTPVSPPSM
On to B1, for which the binding entry in the assay with FLAG mMixl1 (mouse) is “binds”; in assay [1] it was “binds”; in assay [2], “binds”; in assay [3], “binds”; in assay [4], “binds weakly”.

B2: endogenous Brachyury (protein, UniProt P20293 1-436)
chain: MSSPGTESAGKSLQYRVDHLLSAVESELQAGSEKGDPTERELRVGLEESELWLRFKELTNEMIVTKNGRRMFPVLKVNVSGLDPNAMYSFLLDFVTADNHRWKYVNGEWVPGGKPEPQAPSCVYIHPDSPNFGAHWMKAPVSFSKVKLTNKLNGGGQIMLNSLHKYEPRIHIVRVGGPQRMITSHCFPETQFIAVTAYQNEEITALKIKYNPFAKAFLDAKERNDHKDVMEEPGDCQQPGYSQWGWLVPGAGTLCPPASSHPQFGGSLSLPSTHGCERYPALRNHRSSPYPSPYAHRNSSPTYADNSSACLSMLQSHDNWSSLGVPGHTSMLPVSHNASPPTGSSQYPSLWSVSNGTITPGSQTAGVSNGLGAQFFRGSPAHYTPLTHTVSAATSSSSGSPMYEGAATVTDISDSQYDTAQSLLIASWTPVSPPSM
Consider B2, for which the binding result in assay [5] was “binds”.

B3: HA-mOct6 (protein, UniProt P21952 1-449)
chain: MATTAQYLPRGPGGGAGGTGPLMHPDAAAAAAAAAERLHAGAAYREVQKLMHHEWLGAGAGHPVGLAHPQWLPTGGGGGGDWAGGPHLEHGKAGGGGTGRADDGGGGGGFHARLVHQGAAHAGAAWAQGGTAHHLGPAMSPSPGAGGGHQPQPLGLYAQAAYPGGGGGGLAGMLAAGGGGAGPGLHHALHEDGHEAQLEPSPPPHLGAHGHAHGHAHAGGLHAAAAHLHPGAGGGGSSVGEHSDEDAPSSDDLEQFAKQFKQRRIKLGFTQADVGLALGTLYGNVFSQTTICRFEALQLSFKNMCKLKPLLNKWLEETDSSSGSPTNLDKIAAQGRKRKKRTSIEVGVKGALESHFLKCPKPSAHEITGLADSLQLEKEVVRVWFCNRRQKEKRMTPAAGAGHPPMDDVYAPGELGPGGGSASPPSAPPPPPPAALHHHHHHTLPGSVQ
On to B3, for which the binding result in the assay with GST mT (mouse) is reported as “no binding”.

B4: His-Xbra (protein, UniProt P24781 1-432)
chain: MSATESCAKNVQYRVDHLLSAVENELQAGSEKGDPTEKELKVSLEERDLWTRFKELTNEMIVTKNGRRMFPVLKVSMSGLDPNAMYTVLLDFVAADNHRWKYVNGEWVPGGKPEPQAPSCVYIHPDSPNFGAHWMKDPVSFSKVKLTNKMNGGGQIMLNSLHKYEPRIHIVRVGGTQRMITSHSFPETQFIAVTAYQNEEITALKIKHNPFAKAFLDAKERNDYKDILDEGIDSQHSNFSQLGTWLIPNGGSLCSPNPHTQFGAPLSLSSPHGCERYSSLRNHRSAPYPSPYTHRNNSPNNLADNSSACLSMLQSHDNWSTLQMPAHTGMLPMSHSTGTPPPSSQYPSLWSVSNSAITPVSQSGGITNGISSQYLLGSTPHYSSLSHAVPSPSTGSPLYEHGAQTEIAENQYDVTAHSRLSSTWTPVAPPSV
Turning to B4, in the assay with GST-xMix.1 (Xenopus), the binding entry is “binds”.

Source of the values: publication PMC3229578.
